# Whole data set: some 33,000 sequences, median “E-score (-0.5 to 0.5)” near -0.041, cut for the highest 2% near 0.37. The list shows a part of the results.
# Biological target: T1, Ecm22 (UniProt Q05958)
# T1 sequence: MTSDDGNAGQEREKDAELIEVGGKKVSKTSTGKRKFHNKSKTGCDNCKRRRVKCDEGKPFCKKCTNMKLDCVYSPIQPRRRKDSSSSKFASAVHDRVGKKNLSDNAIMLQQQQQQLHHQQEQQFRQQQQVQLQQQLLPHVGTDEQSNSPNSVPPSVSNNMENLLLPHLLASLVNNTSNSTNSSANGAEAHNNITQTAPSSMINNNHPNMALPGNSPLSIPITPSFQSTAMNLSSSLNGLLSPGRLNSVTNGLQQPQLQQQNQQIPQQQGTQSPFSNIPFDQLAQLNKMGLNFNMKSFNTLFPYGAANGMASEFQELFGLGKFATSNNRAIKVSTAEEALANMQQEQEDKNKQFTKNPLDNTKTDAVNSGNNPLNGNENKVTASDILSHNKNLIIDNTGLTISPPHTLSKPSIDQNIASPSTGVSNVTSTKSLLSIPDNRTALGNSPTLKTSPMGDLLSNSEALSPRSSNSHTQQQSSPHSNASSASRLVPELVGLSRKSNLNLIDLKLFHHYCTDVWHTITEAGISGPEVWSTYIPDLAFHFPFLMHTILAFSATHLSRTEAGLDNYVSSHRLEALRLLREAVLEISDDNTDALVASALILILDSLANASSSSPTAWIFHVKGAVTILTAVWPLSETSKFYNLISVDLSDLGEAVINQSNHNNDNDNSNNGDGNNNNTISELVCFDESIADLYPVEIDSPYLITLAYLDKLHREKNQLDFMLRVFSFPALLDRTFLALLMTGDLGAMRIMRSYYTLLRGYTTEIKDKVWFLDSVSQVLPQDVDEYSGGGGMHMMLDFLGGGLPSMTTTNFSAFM
# Experiment: PBM E-score (8-mer binding enrichment) (E-score (-0.5 to 0.5)); higher = stronger / more preferred TF binding; most listed sequences are background and not binding sites
# Conditions: protein concentration: 200 nM; construct: GST-full length
# How it was run: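 For each ungapped eight-base word taken together with its reverse complement, the Universal PBM Analysis Suite assigned an E-score. Binding data came from GST-tagged yeast transcription factors, applied at about 100-200 nM, on universal all-10-mer Agilent arrays made double-stranded by primer extension. Fluorescent anti-GST marked bound protein, and scans were normalised with masliner.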
row,Sequence,PBM E-score
1,CATCTCGC,0.269
2,AACTGTCA,-0.107
3,ACCTGCAG,-0.0186
4,AGTTGCGA,0.0752
5,CCCTCGAG,-0.326
6,AAGACGTC,0.00719
7,CCTATGAG,-0.296
8,AGAGCGAC,0.213
9,AGATGACG,0.0355
10,AAAAACGC,0.0905
11,GAGTTGCC,-0.00797
12,ACCCTTGA,-0.18
13,ACAGTGTA,0.0291
14,ACAATGCG,-0.011
15,TAAAGTGA,0.128
16,ACGGTAAA,0.16
17,ACTCCAAG,-0.208
18,GCGGTCAA,-0.136
19,CCGCGGTC,-0.0499
20,AAGATAAT,-0.0266
21,CATATTTA,0.0517
22,GCCCTAGC,-0.298
23,TCACGTCA,-0.108
24,GTCTAGCA,-0.0831
25,TTTGCAAA,0.164

row,Sequence,PBM E-score
1,AGTGGGGC,-0.234
2,GAAGTGCA,-0.079
3,AGCCGACT,0.00785
4,ACAAACAG,-0.0621
5,TCTGGGCA,-0.293
6,TGAAGACA,0.0768
7,GATAAGAA,0.0155
8,CCCGGCCA,-0.316
9,CGCGCCGA,0.123
10,AGCCGTAC,0.369
11,CGAGCATC,0.223
12,AGAACGAA,0.422
13,ACGTCCAC,-0.0555
14,AGCATAAA,-0.135
15,GAACCAAA,-0.116
16,ACCGAAAT,0.15
17,AGCCACCC,-0.139
18,AAAGGTAT,0.00139
19,AGCAGTCG,0.102
20,GCTGCGCC,-0.26
21,CAACTAAG,0.0643
22,AGCCCTTC,-0.206
23,TTACGTAA,0.164
24,CAAGTCTC,-0.105
25,CAGCTGCA,-0.385

row,Sequence,PBM E-score
1,AGTAGGAC,-0.254
2,TGCCACCA,-0.217
3,ACTGATAG,-0.156
4,ACGTTAAG,0.143
5,ACCTAAGC,-0.008
6,CGGATACC,0.0623
7,AGATCAGA,-0.14
8,CGTTCTCC,0.223
9,GGTGCTCA,-0.0745
10,AATCTAGA,-0.142
11,CGGACCGC,0.139
12,AGAAGCAC,-0.22
13,ATCTAACG,0.0414
14,ATCAGAGA,-0.127
15,AATCACTC,-0.0499
16,CATTCTAA,-0.019
17,ACGCACCA,0.0808
18,TACTATCA,0.121
19,ACCCGCGT,0.0617
20,GGGGCAGA,-0.0715
21,CATATACC,-0.0901
22,GTTTCGCA,0.204
23,GAAGTGTC,-0.055
24,ACTGAGTG,0.0538
25,AGGTTTCA,-0.106

row,Sequence,PBM E-score
1,ACTAAGCA,-0.146
2,CCTGCTGC,-0.19
3,AGAAGGAA,-0.0762
4,AGATAGCA,-0.224
5,AGCGTTAA,0.064
6,ACGTGTTA,0.113
7,GACTTTAC,0.145
8,CTAGGCGA,-0.00766
9,ATTGTTCA,0.01
10,ACGGGAAC,0.309
11,CGATAGTA,0.00622
12,CTACATGA,-0.136
13,CTGTTTGC,0.0586
14,TAGCGCGA,0.119
15,AGGCCACG,-0.0485
16,CGATTGAA,0.0465
17,CTGACGGC,-0.199
18,AATTACGC,0.019
19,ATCACAGA,-0.036
20,AGGCAAAA,-0.196
21,AGCCAGAT,-0.098
22,GGAACTAA,0.12
23,AACGGACC,0.287
24,ACCGAGAG,0.212
25,GGGCGTGA,-0.0475

row,Sequence,PBM E-score
1,CCGAAGAG,0.165
2,GCCGCTTA,0.128
3,GTCGACAA,-0.096
4,TATACAAA,0.106
5,CCAATGAG,-0.157
6,AGCTGTCG,0.224
7,ACAAGTTC,0.0124
8,ACCCCCAT,-0.186
9,ATATGTCC,0.0213
10,CCGCACTA,0.0774
11,CTTCCTAA,-0.0861
12,CCGAACCC,-0.0919
13,CGTGGGAG,-0.0456
14,TAATCCAA,-0.0649
15,CCCTCTCA,-0.297
16,ACTCGAAG,-0.196
17,CCCCAAAC,-0.0762
18,CCCGAGTA,0.0355
19,ACTCTGTC,0.0162
20,ATACTTTC,-0.00925
21,GCCACGAA,-0.0254
22,CTTGATAA,-0.116
23,GTCAGCAC,-0.103
24,CGCTCGCA,0.287
25,AAAACAGA,0.0336

row,Sequence,PBM E-score
1,TATAATCA,0.0314
2,CAGGACAC,-0.182
3,ATCAACGA,0.157
4,AACAACCG,0.184
5,AAATATAT,0.0892
6,TGCTGACA,-0.0974
7,CGCAAAAA,0.231
8,CAAGAATC,-0.0456
9,GCCAAGTA,-0.0261
10,CGCTACTA,0.131
11,AACACCCA,-0.125
12,ACATTGCG,-0.00816
13,ATTCGTGA,-0.00041
14,GCACGAAA,0.103
15,GCGCTGTA,-0.0662
16,GCAGCCGA,-0.0601
17,GAGTGCCA,-0.223
18,ATAGAGAT,0.0778
19,ATCATATC,0.143
20,GACAATGA,-0.154
21,GGTCTTCA,-0.13
22,CAAGCCGA,0.0727
23,AAATGTAT,0.147
24,CAGATGTA,-0.283
25,AACATTAT,-0.0277

row,Sequence,PBM E-score
1,AAGCACAG,-0.135
2,AACAGTCG,0.0423
3,AAAGCAAC,0.0163
4,GGGGATAA,-0.0248
5,ACTCCGGG,-0.0622
6,CCCTTCGC,0.0525
7,TCTAGCCA,-0.165
8,ACAGTATG,0.0575
9,CACTTCCA,-0.146
10,AGCGCCTC,-0.0741
11,AGTCCACA,-0.121
12,CGGGTTCA,0.0613
13,ACCCCACT,0.0855
14,CATATAAC,-0.00057
15,GGAATCGA,-0.146
16,AACATCAC,-0.116
17,TTACAGAA,-0.184
18,GTATCACA,0.246
19,ATACACAC,0.0416
20,GAACAAAC,0.142
21,AGTCGTGG,-0.233
22,TGCGTTAA,0.243

# — the supplement of paper PMC3334620
